{
  "source": "the BET-seq Pho4 binding data (Le et al. 2018)",
  "note": "Some of the results follow. The energies were worked out here from pooled read counts, against the library average; single values are noisy.",
  "data": [
    {"biological_target": "T1, Pho4 (S. cerevisiae) (UniProt P07270)", "T1 sequence": "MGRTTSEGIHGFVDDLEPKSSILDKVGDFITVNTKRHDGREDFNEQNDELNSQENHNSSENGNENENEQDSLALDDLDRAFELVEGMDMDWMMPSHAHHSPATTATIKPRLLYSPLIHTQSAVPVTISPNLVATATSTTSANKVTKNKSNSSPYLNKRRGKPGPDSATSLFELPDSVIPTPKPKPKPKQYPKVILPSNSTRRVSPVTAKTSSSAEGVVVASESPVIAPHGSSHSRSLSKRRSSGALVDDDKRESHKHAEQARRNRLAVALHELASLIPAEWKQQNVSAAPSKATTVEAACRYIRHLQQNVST", "experiment": "relative binding free energy (BET-seq); higher = weaker binding", "details": "reference: library average", "units": {"relative binding free energy": "kcal/mol"}, "values": [
      {"sequence": "AATTTCACGTGTTACT", "relative binding free energy": 0.29},
      {"sequence": "TGGTCCACGTGTGTAA", "relative binding free energy": 0.07},
      {"sequence": "GTTTTCACGTGGTCGC", "relative binding free energy": 0.24},
      {"sequence": "TCTTGCACGTGTAGGA", "relative binding free energy": 0.08},
      {"sequence": "TATATCACGTGCAGGG", "relative binding free energy": -0.06},
      {"sequence": "GTTGGCACGTGCGATA", "relative binding free energy": -0.06},
      {"sequence": "CTAGGCACGTGGTTGT", "relative binding free energy": -0.1},
      {"sequence": "CAATGCACGTGTGGTA", "relative binding free energy": -0.01},
      {"sequence": "ACAGTCACGTGGGTAG", "relative binding free energy": -0.17},
      {"sequence": "GTTTTCACGTGGTATT", "relative binding free energy": 0.24},
      {"sequence": "ATGCGCACGTGTGTCG", "relative binding free energy": -0.12},
      {"sequence": "TTTATCACGTGGTGCA", "relative binding free energy": -0.08},
      {"sequence": "AAAGGCACGTGTGTGC", "relative binding free energy": -0.07},
      {"sequence": "GGGTCCACGTGAGTTG", "relative binding free energy": 0.26},
      {"sequence": "ATGTGCACGTGTAATT", "relative binding free energy": 0.01},
      {"sequence": "GCTTGCACGTGTTGTG", "relative binding free energy": 0.16},
      {"sequence": "GTTGTCACGTGAGCGT", "relative binding free energy": 0.28},
      {"sequence": "TTTCGCACGTGTATGA", "relative binding free energy": 0.14},
      {"sequence": "CATGTCACGTGTTAGT", "relative binding free energy": 0.14},
      {"sequence": "GAGTCCACGTGGGCGT", "relative binding free energy": 0.09},
      {"sequence": "TTAGTCACGTGTTGCA", "relative binding free energy": -0.02},
      {"sequence": "ATATTCACGTGGGCAT", "relative binding free energy": 0.06},
      {"sequence": "AGGATCACGTGTGTTG", "relative binding free energy": 0.17},
      {"sequence": "TGTTACACGTGGGTCT", "relative binding free energy": -0.05},
      {"sequence": "GGGTCCACGTGTGGTG", "relative binding free energy": 0.07},
      {"sequence": "GTTAGCACGTGGAATA", "relative binding free energy": 0.19},
      {"sequence": "TTGCACACGTGGTATG", "relative binding free energy": -0.22},
      {"sequence": "CTAGACACGTGTAGGG", "relative binding free energy": 0.01},
      {"sequence": "GGTGTCACGTGGGCGG", "relative binding free energy": -0.01},
      {"sequence": "GGGTGCACGTGGTGGG", "relative binding free energy": -0.03},
      {"sequence": "TGTTCCACGTGTTGGT", "relative binding free energy": 0.03},
      {"sequence": "GGGGTCACGTGAGAGG", "relative binding free energy": 0.34},
      {"sequence": "GGACGCACGTGTGTGT", "relative binding free energy": 0.07},
      {"sequence": "GGACACACGTGGGTCG", "relative binding free energy": 0.09},
      {"sequence": "GCGTGCACGTGCTGTT", "relative binding free energy": -0.04},
      {"sequence": "TTGACCACGTGAGTTG", "relative binding free energy": 0.3},
      {"sequence": "GGGGACACGTGCGTTG", "relative binding free energy": -0.02},
      {"sequence": "TGGAGCACGTGACGGG", "relative binding free energy": 0.03},
      {"sequence": "TTTTTCACGTGTGCGC", "relative binding free energy": 0.25},
      {"sequence": "GCATTCACGTGGCGGG", "relative binding free energy": 0.25},
      {"sequence": "CGGTACACGTGGGAGG", "relative binding free energy": -0.13},
      {"sequence": "CGAATCACGTGTGTAT", "relative binding free energy": 0.21},
      {"sequence": "ATAGACACGTGATAGG", "relative binding free energy": 0.07},
      {"sequence": "CTGCGCACGTGAATGG", "relative binding free energy": 0.33},
      {"sequence": "GTTGTCACGTGGCGCG", "relative binding free energy": 0},
      {"sequence": "GAATTCACGTGAGTTT", "relative binding free energy": 0.44},
      {"sequence": "TTGCGCACGTGATGTC", "relative binding free energy": 0.08},
      {"sequence": "ATTTGCACGTGGAAGA", "relative binding free energy": -0.06},
      {"sequence": "AGGTTCACGTGGTACT", "relative binding free energy": 0.17},
      {"sequence": "GCGTGCACGTGGTGCA", "relative binding free energy": -0.11},
      {"sequence": "GGTATCACGTGTAACT", "relative binding free energy": 0.29},
      {"sequence": "GTTATCACGTGGTGCG", "relative binding free energy": 0.2},
      {"sequence": "GCGGGCACGTGTTTGG", "relative binding free energy": -0.14},
      {"sequence": "AAAGTCACGTGGTCGG", "relative binding free energy": 0.03},
      {"sequence": "GATGTCACGTGTTATT", "relative binding free energy": 0.2},
      {"sequence": "CGTAGCACGTGGTCTT", "relative binding free energy": -0.08},
      {"sequence": "GTGGGCACGTGGCTAT", "relative binding free energy": -0.1},
      {"sequence": "GTTTACACGTGGCGTA", "relative binding free energy": 0.11},
      {"sequence": "GGGAACACGTGTAGTA", "relative binding free energy": 0},
      {"sequence": "CGCGCCACGTGGGGTG", "relative binding free energy": -0.28},
      {"sequence": "GTGGACACGTGGTGTG", "relative binding free energy": 0.03},
      {"sequence": "TTCTACACGTGGTAAT", "relative binding free energy": 0.21},
      {"sequence": "GTTGTCACGTGAGGCA", "relative binding free energy": 0.29},
      {"sequence": "ATGGGCACGTGATTGA", "relative binding free energy": -0.1},
      {"sequence": "CGGTGCACGTGGCGGG", "relative binding free energy": -0.22},
      {"sequence": "TTCAGCACGTGTTTAG", "relative binding free energy": -0.08},
      {"sequence": "AGGTACACGTGTTTAG", "relative binding free energy": 0.06},
      {"sequence": "CGGGACACGTGGATGT", "relative binding free energy": -0.01},
      {"sequence": "TCGATCACGTGGGGTA", "relative binding free energy": -0.18},
      {"sequence": "TGAAGCACGTGACTGG", "relative binding free energy": 0.06},
      {"sequence": "CTGAGCACGTGAGTGT", "relative binding free energy": 0.22},
      {"sequence": "CGTAACACGTGGGGAG", "relative binding free energy": -0.16},
      {"sequence": "CGTCGCACGTGAGTGG", "relative binding free energy": 0},
      {"sequence": "CGGGGCACGTGATTTA", "relative binding free energy": -0.01},
      {"sequence": "ATGGTCACGTGGAGCT", "relative binding free energy": -0.02},
      {"sequence": "TTCATCACGTGAGTAT", "relative binding free energy": 0.4},
      {"sequence": "TTGTTCACGTGATAGT", "relative binding free energy": 0.35},
      {"sequence": "TTGGCCACGTGGATTA", "relative binding free energy": 0.01},
      {"sequence": "AGTGTCACGTGGACTG", "relative binding free energy": 0.08},
      {"sequence": "TGCTACACGTGGGTTT", "relative binding free energy": 0.11},
      {"sequence": "ATATCCACGTGAGGGG", "relative binding free energy": 0.15},
      {"sequence": "AGGGTCACGTGAGTAT", "relative binding free energy": 0.43},
      {"sequence": "TTGGCCACGTGCGGTG", "relative binding free energy": -0.22},
      {"sequence": "TAGGACACGTGGTTGA", "relative binding free energy": -0.07},
      {"sequence": "TGATACACGTGTGGAT", "relative binding free energy": -0.07},
      {"sequence": "CATGGCACGTGACGGG", "relative binding free energy": -0.06},
      {"sequence": "TTGTGCACGTGGTAGT", "relative binding free energy": -0.01},
      {"sequence": "TCAGGCACGTGTGTAG", "relative binding free energy": 0.02},
      {"sequence": "GCTGTCACGTGCTGGG", "relative binding free energy": 0.05},
      {"sequence": "CAGCTCACGTGGGGGG", "relative binding free energy": 0.21},
      {"sequence": "ATGATCACGTGCTGTG", "relative binding free energy": 0.03},
      {"sequence": "AAACTCACGTGGAGGG", "relative binding free energy": 0.23},
      {"sequence": "GTTTACACGTGGTGTA", "relative binding free energy": 0.04},
      {"sequence": "CTAATCACGTGTTTTT", "relative binding free energy": 0.17},
      {"sequence": "ATAGTCACGTGGCTTG", "relative binding free energy": 0.05},
      {"sequence": "TAATGCACGTGTAGAA", "relative binding free energy": 0.05},
      {"sequence": "CGCTACACGTGGTGGT", "relative binding free energy": 0.03},
      {"sequence": "TAAGTCACGTGTATGA", "relative binding free energy": 0.21},
      {"sequence": "CGTCTCACGTGATGGT", "relative binding free energy": 0.34},
      {"sequence": "GCTAGCACGTGTCGGG", "relative binding free energy": 0.01},
      {"sequence": "CGCTGCACGTGATTGG", "relative binding free energy": 0.06},
      {"sequence": "AAATACACGTGTTGTT", "relative binding free energy": -0.07},
      {"sequence": "AGAATCACGTGGCGTG", "relative binding free energy": 0.08},
      {"sequence": "GCGTGCACGTGAGGAG", "relative binding free energy": 0.19},
      {"sequence": "AACCTCACGTGTGGGG", "relative binding free energy": 0.15},
      {"sequence": "AGGTCCACGTGAGGAG", "relative binding free energy": 0.21},
      {"sequence": "ATTTTCACGTGCGAGT", "relative binding free energy": 0.06},
      {"sequence": "TGGTGCACGTGACGTA", "relative binding free energy": -0.13},
      {"sequence": "CTGGACACGTGTTATT", "relative binding free energy": 0.12},
      {"sequence": "ATTGTCACGTGGTGCG", "relative binding free energy": 0.01},
      {"sequence": "TAGAGCACGTGTATTG", "relative binding free energy": -0.08},
      {"sequence": "TTAAGCACGTGGCTTT", "relative binding free energy": -0.23},
      {"sequence": "TGATCCACGTGTGTTT", "relative binding free energy": 0.15},
      {"sequence": "TGGTTCACGTGAGATG", "relative binding free energy": 0.5},
      {"sequence": "GGATTCACGTGCTTGG", "relative binding free energy": 0.23}
    ]}
  ]
}
